Data: paper PMC4336329 (PLoS ONE, 2015)
The whole screen tested about 310,000 compounds, of which about 2,200 (0.71%) showed an effect of 50% or more. Effects have a minus sign here. This is one part of the list.

The compounds below were run against human ether-à-go-go-related gene (hERG) potassium channel (human, UniProt Q12809) (assay: primary screen, population patch clamp on CHO cells stably expressing hERG).
Chain of human ether-à-go-go-related gene (hERG) potassium channel (Q12809 whole entry, looked up): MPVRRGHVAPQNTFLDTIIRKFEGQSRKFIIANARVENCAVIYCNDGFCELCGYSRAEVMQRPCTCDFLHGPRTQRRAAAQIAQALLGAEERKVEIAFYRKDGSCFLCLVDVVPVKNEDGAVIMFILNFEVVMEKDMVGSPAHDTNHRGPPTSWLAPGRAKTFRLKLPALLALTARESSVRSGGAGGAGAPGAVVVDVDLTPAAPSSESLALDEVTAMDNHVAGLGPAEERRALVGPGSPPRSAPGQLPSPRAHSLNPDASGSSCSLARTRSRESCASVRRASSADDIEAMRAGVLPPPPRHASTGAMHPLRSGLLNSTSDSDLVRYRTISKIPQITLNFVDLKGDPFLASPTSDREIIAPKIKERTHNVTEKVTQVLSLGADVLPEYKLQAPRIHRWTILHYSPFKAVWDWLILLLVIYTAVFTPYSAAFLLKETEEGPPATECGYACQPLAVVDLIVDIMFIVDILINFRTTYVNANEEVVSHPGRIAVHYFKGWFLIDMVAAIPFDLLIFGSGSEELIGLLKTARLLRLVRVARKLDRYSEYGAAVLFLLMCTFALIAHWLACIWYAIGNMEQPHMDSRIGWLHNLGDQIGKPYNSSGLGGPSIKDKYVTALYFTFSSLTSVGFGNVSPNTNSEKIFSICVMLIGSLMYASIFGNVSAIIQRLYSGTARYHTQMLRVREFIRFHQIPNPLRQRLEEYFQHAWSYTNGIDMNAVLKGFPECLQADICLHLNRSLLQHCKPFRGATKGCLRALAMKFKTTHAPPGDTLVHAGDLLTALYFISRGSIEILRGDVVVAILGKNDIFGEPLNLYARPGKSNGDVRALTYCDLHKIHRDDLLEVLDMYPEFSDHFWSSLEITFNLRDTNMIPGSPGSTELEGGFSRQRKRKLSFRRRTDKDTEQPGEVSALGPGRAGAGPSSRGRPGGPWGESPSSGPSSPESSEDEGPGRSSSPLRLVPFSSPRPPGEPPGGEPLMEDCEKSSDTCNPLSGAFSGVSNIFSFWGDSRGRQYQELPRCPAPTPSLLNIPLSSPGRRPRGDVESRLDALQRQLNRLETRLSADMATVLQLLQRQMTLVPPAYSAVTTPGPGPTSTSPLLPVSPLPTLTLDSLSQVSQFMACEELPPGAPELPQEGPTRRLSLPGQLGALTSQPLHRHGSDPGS

SMILES | hERG current change (%, negative = inhibition) at 1uM
C/C(=N\NC(=O)COc1c(C)cccc1C)c1cccs1 | 8.57%
CCCCC1CCC(C(=O)N(CCOC)c2c(N)n(CC(C)C)c(=O)[nH]c2=O)CC1 (stereo not shown) | 15%
CCCNC(=O)N1[C@H]2CC[C@@H]1C(C(=O)OC)=C(c1cccc(OC)c1OC)C2 | 17.9%
COc1ccc(N(Cc2ccco2)C(=O)c2ccccc2F)cc1OC | 6.64%
NNC(=O)c1ccc(Cn2cc(Cl)cn2)cc1 | -3.62%
COC(=O)N1CCN(c2ccc(C)cc2)C(C)C1 (stereo not shown) | 10.3%
COc1ccc(C(=O)CC(=O)C(=O)Nc2ccc([N+](=O)[O-])cc2C)cc1 | 12.6%
Cc1nnc(SCC(=O)Nc2ccc(Cl)cn2)n1Cc1ccccc1 | 14.4%
CCCCOc1ccc(CSCCN)cc1Cl.Cl | 8.85%
Cc1cc2ncn(C(=O)c3c(-c4ccccc4Cl)noc3C)c2cc1C | 9.85%
CC(=O)c1sc(C(C)(C)C)cc1NC(=O)c1ccccc1C(=O)O | 14.9%
COc1cc2c3c(c1)-c1c(sn(-c4cc(OC)ccc4OC)c1=S)C(C)(C)N3C(=O)C2=O | 6.02%
O=C(NC12CC3CC(CC(C3)C1)C2)C1CCCN1C(=O)Nc1ccccc1 (stereo not shown) | 8.5%
CC12CCC(C(=O)NCCCN3CCOCC3)(C(Br)C1=O)C2(C)C (stereo not shown) | 12.8%
CCN(Cc1ccccc1)S(=O)(=O)c1ccc(C(=O)N(CCCN(C)C)c2nc3cc4c(cc3s2)OCO4)cc1.Cl | -2.41%
Cc1ccc(S(=O)(=O)NCCCNS(C)(=O)=O)cc1 | 2.21%
C=CCNc1nnc(Cc2ccc(C(C)C)cc2)c(=O)[nH]1 | 10.3%
CCCCCCc1ccc(-c2ncc(N)cn2)cc1 | -5.95%
Cc1ccccc1-n1c(O)c(/C=N/c2nccs2)c(=O)[nH]c1=O [24811058] | 13.2%
Cc1cc(SCC(=O)c2cccs2)n2nc(C)c(-c3ccc(Cl)cc3)c2n1 | 5.64%
COc1ncc(C2=CC(=O)CC(C)(C)C2)cn1 | -0.232%
C[N+]1(C)CC[C@H](OC(=O)[C@@](O)(c2ccccc2)C2CCCC2)C1.[Br-] | 6.96%
Cc1cnc(C(=O)Nc2ccccc2-c2ccc(C)o2)cn1 | 7.54%

SMILES | hERG current change (%, negative = inhibition) at 1uM
CCC(C)NC(=O)C1CCN(CCCc2ccccc2)CC1.O=C(O)C(=O)O (stereo not shown) | 8.5%
COc1ccc(Cc2noc(CN(C)Cc3ccc(-n4cccn4)cc3)n2)cc1OC | -0.946%
CCC1CCC/C1=N\NC(=O)c1cc(C)[nH]n1 (stereo not shown) | 7.3%
CC(=O)c1cccc(NC(=O)C(C)OC(=O)Cc2c[nH]c3ccccc23)c1 (stereo not shown) | 8.98%
S=C(N/N=C/c1ccccc1)N1CCOCC1 | 14.7%
O=C(Nc1ccsc1C(=O)N1CCCCCC1)c1ccccc1 | 2.86%
CC(C)CNC(=S)N1CCC(NC(=O)C23CC4CC(CC(C4)C2)C3)CC1 | 3.51%
COc1ccc(/C=C2\SC(=S)N(NC(=O)c3csc4c3CCCC4)C2=O)cc1 | 5.24%
CC(NC(=S)N1CCOCC1)c1ccccc1 (stereo not shown) | 7.09%
Cc1ccc(NC(=O)c2ccco2)cc1C | -8.52%
Clc1ccccc1N=C1NN=C(c2cccs2)CS1 | 1.46%
O=C(c1ccc(N2CCCC2)c([N+](=O)[O-])c1)N1CCN(CCO)CC1 | 7.71%
NC(=O)c1nsc(C(=O)N(c2ccccc2)C(C(=O)NC2CCCC2)c2cccs2)c1N (stereo not shown) | 11.3%
Cc1noc(C)c1Cn1nc(C(=O)O)c2ccccc2c1=O | 3.2%
O=C(O)/C=C/C(=O)NC1CC1 | 21.4%
Cc1nc(CCNC(=O)Cc2ccc(Cl)cc2)cs1 | 13.9%
Cc1ccc(S(=O)(=O)CCC(=O)OCc2ccc(Cl)cc2)cc1 | 4.04%
CCC1C(=O)N=C(SCC(=O)Nc2ccc(S(N)(=O)=O)cc2)NC1=O (stereo not shown) | 3.61%
Cc1ccc(S(=O)(=O)Cn2nnnc2C(C(C)C)N2CCC(O)CC2)cc1 (stereo not shown) | 14.5%
C=C(C)C(=O)Nc1cccc(C2=NOC3(C2)C[C@H](C(N)=O)N(C(=O)COc2ccc(Cl)cc2)C3)c1 (stereo partly shown) | 4.75%
C=CCNC(=S)N/N=C/c1ccc(N(CC)Cc2ccccc2)cc1 | 18.4%
COc1ccc(NC(=O)CSc2nc3ccccc3c(=O)n2CCCN2CCOCC2)c(OC)c1 | 1.25%
CCn1c(SCC(=O)Nc2cc(C)on2)nnc1-c1ccc(C)cc1 | 17.6%

SMILES | hERG current change (%, negative = inhibition) at 1uM
COc1ccccc1NC(=O)CC1Nc2ccccc2NC1=O (stereo not shown) | 15.8%
Cc1cc(C)c(NC(=O)c2c[nH]c(=S)n2-c2ccc(F)cc2)c(C)c1 | 6.6%
Oc1ccc(C[C@H]2CNCCN2CCC23CC4CC(CC(C4)C2)C3)cc1 | 5.91%
CCNC(=S)Nc1ccc(Cl)cc1Cl | -4.43%
O=Cc1ccc(-n2cc(C=O)c3ccccc32)cc1 | 11.3%
CCNc1nc(NCC)n2c(SCC(=O)Nc3ccccc3F)nnc2n1 | -6.99%
CCOC(=O)c1c(C)[nH]c(C(=O)OCC(=O)c2ccc(OC)cc2OC)c1C | 11.7%
COc1cccc(N(CC(=O)NC2CCCCC2)C(=O)c2snc(C(N)=O)c2N)c1 | 5.91%
CCc1ccc(-c2cc(C)no2)cc1S(=O)(=O)N1CCN(c2ccc(OC)cc2)CC1 | 11.4%
Cn1nc(C(F)(F)F)c(C#N)c1N1CCN(c2cccc(C(F)(F)F)c2)CC1 | 10.9%
CCCOc1ccc([C@@H]2C3CN(C(=O)OCC)CC=C3C(C#N)=C(N)C2(C#N)C#N)cc1OC (stereo partly shown) | 15.1%
CCC(CC)C(=O)Nc1cc(C(=O)NCCc2ccccc2)ccc1Cl | -1.1%
CN(CC(=O)Nc1ccc(F)cc1)C(=O)c1ccc(-c2ccc(Cl)cc2)o1 | -9.75%
C/C(=C\C=C\c1ccccc1)C(=O)c1c(C)cc(C)[nH]c1=O | 14.1%
CN(C)S(=O)(=O)c1ccc(C(=O)NCc2nnc(SCC(=O)N3CCCC3)o2)cc1 | 16.3%
O=[n+]1cc(-c2cccc3ccccc23)n([O-])c2c1CCC2 | 2.37%
Cc1ccc(SC(C)C(=O)N2CCCC2)cc1 (stereo not shown) | 11.2%
COc1nc(-c2ccc(C)cc2)ccc1-c1noc(-c2ccco2)n1 | 12.8%
CC/C(C)=C1\SC(N2CCOCC2)=NC1=O | 7.59%
COc1ccc(S(=O)(=O)NC2CCCCC2)cc1-n1cnnn1 | 8.83%
COc1ccc(C(=O)Nn2c(CCC(=O)O)ccc2-c2ccc(C)cc2)cc1OC | 13.7%
COc1ccc(-c2csc(NC(=O)C3CCN(c4ncnc5sc(C)c(C)c45)CC3)n2)cc1OC | 16%
CCCN(CCC)CCCOC(=O)c1ccc(Cl)cc1Cl.Cl | -56.8%

SMILES | hERG current change (%, negative = inhibition) at 1uM
O=C(Nc1ccccc1)c1ccc(NCC2CCCO2)c([N+](=O)[O-])c1 (stereo not shown) | -1.62%
COc1cccc2sc(N3CCN(C(=O)c4cccs4)CC3)nc12 | 1.6%
COc1ccc(Cl)cc1NC(=S)NNC(=O)c1cccs1 | 16.4%
CC1CCN(C(=O)Cn2cc(C(=O)c3ccco3)c3ccccc32)CC1 | 14.3%
CCOc1cc(NC(=S)NCC2CCCO2)c(OCC)cc1NC(=O)c1ccc(C)cc1 (stereo not shown) | 0.412%
COc1ccc(OC)c(COC(=O)c2cc([N+](=O)[O-])ccc2N2CCOCC2)c1 | -0.0939%
Cc1cccc(-n2c(SCC(N)=O)nnc2-c2ccccn2)c1C | 8.65%
CCCc1nc2n[nH]c(N)c2c2c1CCC2 | -5.76%
Clc1ccc(SCCCN2CCCCC2)cc1.O=C(O)C(=O)O | -24.5%
Cc1nn(C)cc1CN1CCCC(C(=O)c2ccc(-c3ccccc3)c(F)c2)C1 (stereo not shown) | 11.2%
CCOc1ccc(N2CSC(=S)N(c3ccc(OCC)cc3)C2)cc1 | 11.6%
CC#CCCc1nc2ccccc2c(=O)n1N | 13.8%
NC(=O)c1ccccc1N/C=C/C(=O)c1ccc(Cl)cc1 | 10.3%
CC1CC(C)CN(CC(=O)NNC(=O)COc2ccc(Cl)cc2)C1 (stereo not shown) | -3.97%
CN1CCNC(=O)C1CC(=O)NCCc1ccccc1F (stereo not shown) | 12.7%
CC(C(=O)Nc1ccccc1C(=O)N1CCCC1)n1nnc2ccccc21 (stereo not shown) | -0.136%
CCOc1ccc(NC(=O)CC2C(=O)N(C)C(=S)N2CCCc2ccccc2)cc1 (stereo not shown) | 10.2%
CNc1cccccc1=S | 8.22%
CCc1nc2cc([N+](=O)[O-])c([N+](=O)[O-])cc2[nH]1 | 10.7%
O=C(CC1C(=O)NCCN1CC(c1ccccc1)c1ccccc1)NCC1CCOCC1 (stereo not shown) | 11.5%
COc1ccc(OCCC(=O)Nc2ccc(S(N)(=O)=O)cc2)cc1 | 12.8%
Cc1ccc(NCc2ccccc2O)cc1C | 10.2%
